In all, about 310,000 compounds went through this assay and about 2,200 (0.71%) showed an effect of 50% or more. The effect is printed as a negative number. Some of the results follow.
target: human ether-à-go-go-related gene (hERG) potassium channel (human, UniProt Q12809); test: primary screen, population patch clamp on CHO cells stably expressing hERG
Sequence (Q12809 whole entry, looked up): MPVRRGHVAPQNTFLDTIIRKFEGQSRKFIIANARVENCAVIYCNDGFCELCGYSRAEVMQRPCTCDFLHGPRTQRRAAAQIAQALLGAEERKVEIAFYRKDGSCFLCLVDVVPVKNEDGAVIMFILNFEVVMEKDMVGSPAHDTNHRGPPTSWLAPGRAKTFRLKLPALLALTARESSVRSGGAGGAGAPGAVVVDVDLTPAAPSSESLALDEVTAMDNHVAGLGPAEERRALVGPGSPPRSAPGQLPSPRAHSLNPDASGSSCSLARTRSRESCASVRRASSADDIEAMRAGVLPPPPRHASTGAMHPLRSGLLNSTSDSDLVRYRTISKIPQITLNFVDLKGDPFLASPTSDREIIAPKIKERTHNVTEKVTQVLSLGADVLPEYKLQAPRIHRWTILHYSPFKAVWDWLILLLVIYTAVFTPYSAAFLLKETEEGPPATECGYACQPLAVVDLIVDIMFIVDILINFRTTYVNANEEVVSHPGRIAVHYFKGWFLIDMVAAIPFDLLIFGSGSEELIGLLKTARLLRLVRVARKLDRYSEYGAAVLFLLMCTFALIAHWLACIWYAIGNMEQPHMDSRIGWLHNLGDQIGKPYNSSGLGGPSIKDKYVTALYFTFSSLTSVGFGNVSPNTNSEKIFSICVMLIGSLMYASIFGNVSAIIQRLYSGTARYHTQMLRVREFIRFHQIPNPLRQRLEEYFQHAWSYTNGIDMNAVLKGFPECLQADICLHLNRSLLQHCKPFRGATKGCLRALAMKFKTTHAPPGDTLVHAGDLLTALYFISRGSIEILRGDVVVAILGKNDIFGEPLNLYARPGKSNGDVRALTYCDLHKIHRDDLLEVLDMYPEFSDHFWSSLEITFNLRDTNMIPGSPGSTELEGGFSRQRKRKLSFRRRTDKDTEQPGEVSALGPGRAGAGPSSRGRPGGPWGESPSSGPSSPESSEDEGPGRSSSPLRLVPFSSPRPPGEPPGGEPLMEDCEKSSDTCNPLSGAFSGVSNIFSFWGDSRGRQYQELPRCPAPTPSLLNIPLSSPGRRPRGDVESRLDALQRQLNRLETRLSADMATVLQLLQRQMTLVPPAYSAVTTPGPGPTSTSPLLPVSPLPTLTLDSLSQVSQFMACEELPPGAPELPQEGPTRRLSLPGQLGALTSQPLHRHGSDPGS

Row | SMILES | hERG current change (%, negative = inhibition) at 1uM [%]
1 | Cc1ccc(Cl)cc1Nc1nc(-c2cccnc2)cs1 | 19.9
2 | Cc1ccc(S(C)(=O)=NC(=O)c2cc(C)on2)cc1 (stereo not shown) | 11.7
3 | O=C1c2ccccc2-c2onc3ccc(NCCCn4ccnc4)c1c23 | 0.591
4 | COC(=O)Cn1c2nc3ccccc3nc2c2cccc(C)c21 | 12
5 | Cn1c(=O)n(CCc2ccccc2)c(=O)c2c1nc1n2CCCN1Cc1ccccc1 | 15.6
6 | O=[N+]([O-])c1c(Nc2ccc(O)cc2)cc(N2CCOCC2)c2nonc12 | 5.35
7 | CC(=O)Nc1ccc(NC(=S)NC(=O)/C=C/c2ccco2)cc1 | 8.97
8 | Nc1nc(C2CC(=O)OC23CCCCC3)cs1 (stereo not shown) | 12.5
9 | CCN1CCN(CCCN(Cc2cccs2)C(=S)Nc2ccccc2C)CC1 | -10.4
10 | O=C(NCCNC(=O)C(c1ccccc1)c1ccccc1)c1ccco1 | 23.6
11 | O=C(Cn1c(=O)n(CC2CS2)c2ccccc21)N1CCCCC1 (stereo not shown) | 6.6
12 | CCC(c1nnc(SCC(=O)Nc2cc(C)on2)o1)N(C)C (stereo not shown) | 16.1
13 | CC1CCCN(S(=O)(=O)c2cccc(-c3cn4cccnc4n3)c2)C1 (stereo not shown) | -4.53
14 | O=C1[C@@H]2Cc3c([nH]c4ccccc34)C(c3ccccc3)N2C(=O)CN1C1CC1 (stereo partly shown) | 21.8
15 | CCCn1c(SC(C)C(=O)N2CCOCC2)nc2ccc(Br)cc2c1=O (stereo not shown) | -6.54
16 | Cc1cc2nc(-c3ccc(SCC(=O)N4CCc5ccccc54)nc3)[nH]c2cc1C | 0.234
17 | O=c1cc(-c2ccc(O)cc2)oc2cc(O)cc(O)c12 | 3.03
18 | Cc1cc(C)cc(CSCC(=O)N/N=C/c2ccc(OCC(=O)NCc3ccco3)cc2)c1 | -0.66
19 | Cc1nnc2c(N3CCN(C(=O)c4ccco4)CC3)nc3ccccc3n12 | 2.18
20 | COc1cccc(CNC(=O)C2CCN(Cc3cnn(-c4ccccc4)c3-n3cccc3)CC2)c1 | -44.3
21 | Nc1ccc(S(=O)(=O)Nc2ccnn2-c2ccccc2)cc1 | 5.31
22 | CN(Cc1ccccc1F)c1ncnc2sccc12 | 12.7

Row | SMILES | hERG current change (%, negative = inhibition) at 1uM [%]
23 | COC(=O)C1=C(c2c(C)noc2C)C[C@@H]2CC[C@H]1N2C(=O)N1CCc2cc(OC)c(OC)cc2C1 | 9.99
24 | CN(C)C(=O)Nc1ccccc1CC[N+](=O)[O-] | 11.5
25 | O=C(COC(=O)Cn1nc(-c2ccccc2)oc1=O)Nc1ccc(F)cc1 | 8.8
26 | Nc1nc2n(n1)C(c1cccs1)CC(c1ccc(Br)cc1)N2 (stereo not shown) | -2.98
27 | O=C(NNS(=O)(=O)c1ccccc1)C1CCCCC1 | 9.27
28 | COC(=O)CCC(=O)NNC(=O)C1CC1(c1ccccc1)c1ccccc1 (stereo not shown) | 11.7
29 | COc1ccc(C)cc1-n1nnnc1SCc1nc2ccccc2c(=O)[nH]1 | 1.9
30 | CC(C)c1ccc(-n2c(O)c(C=NC(CCS(C)=O)C(=O)O)c(=O)[nH]c2=S)cc1 (stereo not shown) | 13.9
31 | CN(CCc1ccccn1)C(=O)CCC1CCCN(C(=O)c2c(F)ccc(F)c2F)C1 (stereo not shown) | 9.95
32 | CCn1c(C)nc2cc(C(=O)NNS(=O)(=O)c3ccc(C)cc3C)ccc21 | -3.67
33 | COc1cccc(NC(=O)Nc2ccc(CC(=O)O)cc2)c1 | 9.06
34 | NC(=O)c1ccccc1-c1nc(-c2ccccc2)no1 | 2.82
35 | O=C1CNC(=S)N1c1nc(-c2ccccc2)cs1 | 17.5
36 | Cc1nn(Cc2cccc(C(=O)Nc3ccn(Cc4c(F)c(F)cc(F)c4F)n3)c2)c(C)c1[N+](=O)[O-] | 8
37 | O=C(CCN1C(=O)c2ccccc2C1=O)CN1CCOCC1 | 7.68
38 | CC(=O)Nc1nc(C)c(CCC2OCCO2)c(=O)[nH]1 | 14.9
39 | O=C(CCn1c(=O)sc2ccccc21)Nc1nccs1 | 5.18
40 | C/C(CC(=O)c1ccccc1)=N\NC(=O)CC#N | 14.5
41 | Clc1nc(CN2CCOCC2)nc2sc3c(c12)CCC3 | 4.69
42 | N#C/C(=C\c1c[nH]c2ccccc12)C(=O)Nc1ncc(Cc2ccc(Cl)cc2Cl)s1 | 14.4
43 | COc1ccc(CCNC(=O)C/C(C)=N/NC(=O)C23CC4CC(CC(C4)C2)C3)cc1OC | 10.8
44 | O=C(Cn1ccc2ccccc2c1=O)NCCC(=O)N1CCN(c2ccccc2)CC1 | 21.1

Row | SMILES | hERG current change (%, negative = inhibition) at 1uM [%]
45 | CCOc1cc(N2CCOCC2)c(OCC)cc1NC(=O)COC(=O)c1cccc2ccccc12 | 19.8
46 | Cc1ccc(N2CCN(C(=O)c3cccs3)CC2)cc1C | 11.6
47 | CC(C)Cc1nnc(NC(=O)CCC(=O)Nc2ccc3cn[nH]c3c2)s1 | 14.8
48 | Cc1ccccc1CCN(C(=O)Cn1nnc2ccccc21)C(C(=O)NC(C)(C)C)c1ccsc1 (stereo not shown) | 4.35
49 | CC1(NC(=O)CCc2nc3sc4c(c3c(=O)[nH]2)CCCC4)CCS(=O)(=O)C1 (stereo not shown) | -6.51
50 | O=C(O)C(=O)/C(=C\c1ccccc1)c1ccc2ccccc2n1 | 21.3
51 | COc1ccc(-c2noc(-c3ccccc3C(=O)Nc3cccnc3)n2)cc1 | -6.63
52 | Cc1cnc(NC(=O)CN(C)S(=O)(=O)c2ccc(Cl)cc2)s1 | 6.91
53 | COc1ccc2nc(NC(=O)CNS(=O)(=O)c3cccs3)sc2c1 | -8.4
54 | Cc1ccc(CN2CCN(CC(=O)O)C2=O)cc1 | 24
55 | COCCn1c(SCC(=O)N2CCc3ccccc3C2)nc2ccccc2c1=O | 2.16
56 | COc1ccc([C@@H]2OC2(C(N)=O)C(N)=O)cc1 | 11.4
57 | C/C(CC(=O)Nc1ccc([N+](=O)[O-])cc1)=N/NC(=O)C1CC12CCC2 (stereo not shown) | 4.85
58 | CC(C)N1C(=O)CCC1C(=O)N1CCC(Cc2ccccc2)CC1 (stereo not shown) | -1.78
59 | C#CCN1C(=O)C2(C(C#N)=C(N)OC(C)=C2C(=O)OCc2ccccc2)c2ccccc21 (stereo not shown) | -1.85
60 | CCN(CC)C(=O)c1ccc(NC(=O)c2cccc(S(=O)(=O)N3CCN(C)CC3)c2)cc1 | 12.7
61 | CCn1c(=O)c(=O)[nH]c2cc(C(=O)NCc3ccc(F)cc3)ccc21 | 4.65
62 | CCN(CC)c1ccc(/C=N/Nc2cccc(C)c2)c(O)c1 | 8.87
63 | O=C(Nc1ccc(Br)c(C(F)(F)F)c1)c1ccc(C(F)(F)F)cc1 | 9.78
64 | CC(CC(=O)N1CCN(c2ccccc2)CC1)S(=O)(=O)c1ccc2c(c1)NC(=O)CO2 (stereo not shown) | -5.52
65 | CCOC(=O)c1sc(NC(=O)c2cc3ccccc3o2)nc1C | 6.87
66 | O=C(NCCN1CCOCC1)C(=O)NCC1OCCCN1S(=O)(=O)c1ccc(F)cc1 (stereo not shown) | 16.6

Row | SMILES | hERG current change (%, negative = inhibition) at 1uM [%]
67 | Nc1nc(NC(=O)c2ccccc2)nn1-c1ccccc1 | 3.91
68 | CCOC(=O)C1CCN(C(=O)C2CCN(S(=O)(=O)c3ccc4c(c3)CC(C)N4C(C)=O)CC2)CC1 (stereo not shown) | 15.5
69 | CCOC(=O)N1CCN(C(=O)/C(=C/c2cccs2)NC(=O)c2cccs2)CC1 | -6.55
70 | CC(C)C(c1nnnn1Cc1cccs1)N1CCN(c2ccccc2)CC1 (stereo not shown) | 19.7
71 | Cc1nnc(NC(=O)CSc2nnc(-c3ccccc3)n2C)s1 | 16.8
72 | CC(C)CN(C(=O)COC(=O)C1CC1)c1c(N)n(Cc2ccccc2)c(=O)[nH]c1=O | 18
73 | CN(c1ccc(C(=O)NCc2ccncc2)cc1)S(C)(=O)=O | 6.19
74 | O=C(COc1ccccc1F)NCc1ccc(-n2cccc2)cc1 | 5.51
75 | CCc1ccc(NS(=O)(=O)c2ccc(OC)c(C)c2)cc1 | 4.26
76 | Cc1ccc(NC(=S)NCc2ccccc2)c(C)c1 | 12.6
77 | Cc1ccc(/C=c2\sc3nc(-c4cccnc4)nn3c2=O)cc1 | 10.2
78 | COc1ccc(-c2c(=O)n(OCc3ccccn3)c3ccccc3[n+]2[O-])cc1OC | 21.4
79 | O=C1[C@@H]2[C@H](C(=O)N1Cc1cccnc1)[C@H]1C=C[C@@H]2C1 | 8.29
80 | CC(Oc1ccc(Cl)cc1)C(=O)/C=C/N(C)C (stereo not shown) | -8.5
81 | Cc1c(C#N)sc(C(N)=O)c1C | 7.53
82 | Cc1cc(N2CCN(C)CC2)nc2ccc(NC(=S)N3CCCCCC3)cc12 | -31.3
83 | O=C(NCc1nnnn1-c1ccc(F)cc1)C1CC(=O)N(c2ccc(F)cc2)C1 (stereo not shown) | -6.7
84 | O=C(CCCO)N/N=C/c1ccccc1[N+](=O)[O-] | 22.4
85 | CCOC(=O)c1c(-c2ccccc2Cl)cn2ccccc12 | 3.17
86 | Cc1ccc2[nH]c(=O)c(CN(C(=O)c3cccc([N+](=O)[O-])c3)C(C)C)cc2c1 | -21.5
87 | Cc1ccc(S(=O)(=O)N(CC(=O)N2CCCC2)C2CCCCC2)cc1 | -16.7
88 | CN(CC(=O)Nc1ccc(N2CCOCC2)cc1)C(=O)c1cc2c(s1)CCCC2 | 0.499

Source: paper PMC4336329 (PLoS ONE, 2015)
